# Patent publication US20180312565A1 (Affibody, published 2018)
# Substitutions are numbered along the chain they refer to.
# B1: Z17746-ABD (designed binder)
# chain: AQHDEALEVDAKYAKERNEAAYEILYLPNLTNAQKWAFIWKLDDDPSQSSELLSEAKKLNDSQAPKVDYVLAEAKVLANRELDKYGVSDYYKNLINNAKTVEGVKALIDEILAALPYVPG
# notes: domain: GA3
# B2: Z18038-ABD (designed binder)
# chain: B1 chain with E19T
# notes: domain: GA3
# B3: Z18037-ABD (designed binder)
# chain: B1 chain with A33E
# notes: domain: GA3
# B4: Z17758-ABD (designed binder)
# chain: B1 chain with E19K, A33K
# notes: domain: GA3
# B5: Z18060-ABD (designed binder)
# chain: B1 chain with E19S, N32K, A33Q
# notes: domain: GA3
# B6: Z17999-ABD (designed binder)
# chain: B1 chain with E19D, N32Q, A33E, K35R
# notes: domain: GA3
# B7: Z17964-ABD (designed binder)
# chain: B1 chain with E19A
# notes: domain: GA3
# B8: Z17972-ABD (designed binder)
# chain: B1 chain with E19I, A33N
# notes: domain: GA3
# B9: Z18092-ABD (designed binder)
# chain: B1 chain with E19I, Y26W
# notes: domain: GA3
# B10: Z18052-ABD (designed binder)
# chain: B1 chain with E19I, N32Q, A33S, K35I
# notes: domain: GA3
# B11: Z18022-ABD (designed binder)
# chain: B1 chain with E19S, A33Q
# notes: domain: GA3
# B12: Z18069-ABD (designed binder)
# chain: B1 chain with N32A, A33S, K35R
# notes: domain: GA3
# B13: Z18005-ABD (designed binder)
# chain: B1 chain with N32Q, A33V
# notes: domain: GA3
# B14: Z17911-ABD (designed binder)
# chain: B1 chain with E19N
# notes: domain: GA3
# B15: Z18074-ABD (designed binder)
# chain: B1 chain with E19Q, Y22F
# notes: domain: GA3
# B16: Z18099-ABD (designed binder)
# chain: B1 chain with Y22H, N32Q, A33K, K35I
# notes: domain: GA3
# B17: Z17756-ABD (designed binder)
# chain: B1 chain with E19A, Y22F
# notes: domain: GA3
# B18: Z17950-ABD (designed binder)
# chain: B1 chain with E19A, Y22Q, N32S, A33Q, K35R
# notes: domain: GA3
# B19: Z18054-ABD (designed binder)
# chain: B1 chain with E19D, Y22F, N32Q, K35I
# notes: domain: GA3
# B20: Z17978-ABD (designed binder)
# chain: B1 chain with N32Q, A33S
# notes: domain: GA3
# B21: Z18064-ABD (designed binder)
# chain: B1 chain with E19K
# notes: domain: GA3
# B22: Z18039-ABD (designed binder)
# chain: B1 chain with N32Q, A33S, K35I
# notes: domain: GA3
# B23: Z17975-ABD (designed binder)
# chain: B1 chain with E19H, A33K
# notes: domain: GA3
# B24: Z18021-ABD (designed binder)
# chain: B1 chain with E19F, N32S, A33Q
# notes: domain: GA3
# B25: Z18048-ABD (designed binder)
# chain: B1 chain with E19S
# notes: domain: GA3
# B26: Z17968-ABD (designed binder)
# chain: B1 chain with E19Q, Y22F, N32Q, A33Q
# notes: domain: GA3
# B27: Z18078-ABD (designed binder)
# chain: B1 chain with E19T, Y22Q, N32S, A33G
# notes: domain: GA3
# B28: Z18036-ABD (designed binder)
# chain: B1 chain with E19Q, A33K
# notes: domain: GA3
# B29: Z17748-ABD (designed binder)
# chain: B1 chain with E19A, N32Q, A33S
# notes: domain: GA3
# B30: Z18008-ABD (designed binder)
# chain: B1 chain with E19T, N32Q, A33S, K35R
# notes: domain: GA3
# B31: Z18090-ABD (designed binder)
# chain: B1 chain with E19D, A33Q, D43A
# notes: domain: GA3
# B32: Z17825-ABD (designed binder)
# chain: B1 chain with E19L
# notes: domain: GA3
# B33: Z17990-ABD (designed binder)
# chain: B1 chain with A33R
# notes: domain: GA3
# B34: Z17772-ABD (designed binder)
# chain: B1 chain with E19K, Y22H
# notes: domain: GA3
# B35: Z17997-ABD (designed binder)
# chain: B1 chain with E19L, N32Q, A33K, K35R
# notes: domain: GA3
# B36: Z18065-ABD (designed binder)
# chain: B1 chain with E19K, N32Q
# notes: domain: GA3
# B37: Z17995-ABD (designed binder)
# chain: B1 chain with E19T, Y22Q, A33Y
# notes: domain: GA3
# B38: Z18070-ABD (designed binder)
# chain: B1 chain with E19A, A33H
# notes: domain: GA3
# B39: Z18096-ABD (designed binder)
# chain: B1 chain with N32S, A33S
# notes: domain: GA3
# B40: Z18000-ABD (designed binder)
# chain: B1 chain with E19V, A33Q
# notes: domain: GA3
# B41: Z18027-ABD (designed binder)
# chain: B1 chain with E19N, N32S
# notes: domain: GA3
# B42: Z18066-ABD (designed binder)
# chain: B1 chain with A33S
# notes: domain: GA3
# B43: Z18095-ABD (designed binder)
# chain: B1 chain with E19A, Y22F, N32Q, A33S
# notes: domain: GA3
# B44: Z17843-ABD (designed binder)
# chain: B1 chain with E19A, A33K
# notes: domain: GA3
# B45: Z17928-ABD (designed binder)
# chain: B1 chain with E19A, N32Q, A33K, K35R
# notes: domain: GA3
# Biological target: T1, human PD-L1 Fc Chimera (R&D Systems, cat. no. 156-B7-100) (human, UniProt Q9NZQ7 19-239, biotinylated with Sulfo-NHS-LC-Biotin in ELISA and AlphaLISA; not biotinylated in SPR)
# T1 construct: bought; also called hPD-L1; biotinylated hPD-L1; not shown: Fc part of the bought Fc chimera, not described
# T1 sequence (Q9NZQ7 19-239, change not shown): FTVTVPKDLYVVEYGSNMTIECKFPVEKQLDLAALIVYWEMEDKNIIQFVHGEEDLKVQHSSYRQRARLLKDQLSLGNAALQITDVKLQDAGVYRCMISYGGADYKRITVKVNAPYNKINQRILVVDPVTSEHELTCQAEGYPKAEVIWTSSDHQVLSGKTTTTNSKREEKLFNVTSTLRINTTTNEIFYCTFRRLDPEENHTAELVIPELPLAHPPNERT
# Assay: ELISA titration, captured Z-ABD
row,EC50 [nM],Binder
1,0.067,B1
2,0.069,B2
3,0.077,B3
4,0.08,B4
5,0.083,B5
6,0.075,B6
7,0.077,B7
8,0.074,B8
9,0.077,B9
10,0.071,B10
11,0.074,B11
12,0.078,B12
13,0.078,B13
14,0.07,B14
15,0.07,B15
16,0.087,B16
17,0.067,B17
18,0.078,B18
19,0.062,B19
20,0.065,B20
21,0.068,B21
22,0.069,B22
23,0.089,B23

row,EC50 [nM],Binder
1,0.088,B24
2,0.065,B25
3,0.082,B26
4,0.078,B27
5,0.076,B28
6,0.067,B29
7,0.073,B30
8,0.088,B31
9,0.067,B32
10,0.08,B33
11,0.088,B34
12,0.077,B35
13,0.071,B36
14,0.084,B37
15,0.076,B38
16,0.08,B39
17,0.079,B40
18,0.08,B41
19,0.073,B42
20,0.073,B43
21,0.086,B44
22,0.083,B45
